Data from patent US20250082624A1, “METHODS OF TREATING COGNITIVE IMPAIRMENT” (NeuroTherapia, Inc., priority 2023, published 2025).
“Also recorded” adds a separate entry of the source. For part of its entries the source gives two or more results. This is not the full list of results. An entry can have further records. The records of an entry read as repeated measurements on other runs, samples or individuals; a mean can stand among them. What stands in brackets tells the records apart. Letters count within one entry.

How the values were obtained:
[1] = test system: volunteers and AD patients; assay: Orthostatic blood pressure and vertigo tests (timed get-up and go, Nystagmus test, Romberg test); type: in vivo, human; settings: Phase 1b, 10, 30, 90 mg oral QD for 7 days
Method: Assessments: Subjects were assessed for changes in vital signs, orthostatic blood pressure, Romberg test, nystagmus, timed get up and go, electrocardiograms, electroencephalograms (EEG), and laboratory studies. Subjective questionnaires of drug effects (ARCI-M) were administered. Cohort B returned and received a single repeat dose after a standard high-fat meal. The AD cohort also underwent cognitive testing (MMSE, ADAS-COG, MOCA) and had blood samples for biomarkers drawn.
(§1) An informational letter was filed with the FDA to inform them of this study. The study was designed as follows: • 3 healthy cohorts (cohorts A-C) followed by AD cohort (cohort D) treated at MTD • 6 treated, 2 placebos in each cohort • Doses: 10, 30, 90 mg/treatment—latter doses can be adjusted based on PK assessment • In unit, 7 days of treatment • Monitor vertigo with various tests: (1) timed get-up and go, (2) Nystagmus test, (3) Romberg test, and (4) changes in orthostatic blood pressure (Day 1, 3 and 8) • Use 24 hr EEG monitoring for CNS safety assessment • Assess plasma biomarkers of inflammation and AD pre- and post-treatment in AD cohort • Assess changes on cognition post-treatment using MMSE and ADAS-cog • Fed/fasted study to determine food effects on PK as a subset of the Phase 1b

[2] = test system: volunteers and AD patients; assay: 24-hour EEG safety assessment and post-hoc qEEG analysis; type: in vivo, human; settings: Phase 1b, all 4 cohorts
Method: Protocol-specified EEG assessments were for safety assessment of any potential epileptogenic changes. A post-hoc analysis of quantitative EEG (qEEG) changes was also performed.
as §1
No subjects had clinically meaningful abnormal values or changes from baseline, nor differences between placebo and active drug, in EEG readings in any of the 4 cohorts.

For CC1(Cc2ccccc2)COc2cc(C(=O)N3CCCCC3)ccc21 (centres unmarked) [NTRX-07, 3-benzyl-3-methyl-2,3-dihydrobenzofuran-6-carboxylic acid-piperidine amide], the “Vertigo: timed get-up and go, Nystagmus test, Romberg test” value [1] was “No participants had changes [passage A] and no evidence of vertigo at any dose [passage B] and No evidence [table]” and the “Abnormal EEG / brain activity (24-hour EEG)” value [2] was “No participants had abnormalities on the EEG [passage A]; also recorded: no evidence of abnormal brain activity [passage B]; also recorded: No change in EEG [table]”.
